Measured values reported in a compilation of properties of binary mixtures (doi:10.1021/acs.jced.3c00525).
Some of these densities may be calculated back from excess volumes.

Test: xn = mol fraction of the nth substance listed
Conditions: 100 kPa

CC(N)CN (centres undefined) + CCCCO
mass density [kg/m3]
Conditions | 298.15 K | 303.15 K | 308.15 K | 313.15 K | 318.15 K
x2 = 0 | 858.6 | 853.6 | 849.8 | 844.5 | 839.7
x2 = 0.05 | 858.1 | – | – | – | 838
x2 = 0.1 | 856.6 | 851.7 | 846.6 | 841.5 | –
x2 = 0.15 | 855.3 | 850.6 | 845.5 | 840.2 | 835.4
x2 = 0.2 | 853.5 | 848.7 | 843.7 | 839.1 | 833.8
x2 = 0.25 | – | – | – | 837.6 | 832.2
x2 = 0.3 | 849.8 | 845.2 | – | 835.7 | 830.8
x2 = 0.35 | 848.4 | 843.8 | 838.9 | 834.2 | –
x2 = 0.4 | 846.8 | – | 837.3 | – | 827.6
x2 = 0.45 | 844 | 839.3 | 834.5 | 829.7 | 825.1
x2 = 0.5 | 842.1 | – | 832.7 | – | 823.2
x2 = 0.55 | 839.2 | 834.9 | 830.1 | 825.4 | 821.1
x2 = 0.6 | 836.3 | 832.1 | 828.8 | 823.9 | 819.1
x2 = 0.65 | 834.7 | – | 825.6 | 821 | 816.5
x2 = 0.7 | 831.9 | 827.5 | 822.9 | 818.4 | –
x2 = 0.75 | 828.7 | 824.5 | 819.9 | 815.4 | 811.1
x2 = 0.8 | 825.2 | – | – | 811.9 | 807.8
x2 = 0.85 | 821.1 | 816.9 | 812.4 | 808 | –
x2 = 0.9 | 816.5 | 812.3 | 808 | 803.7 | –
x2 = 0.95 | – | 807.8 | 803.6 | – | 795.5

CCC(C)O (centres undefined) + CC(N)CN
x1 = 1
Conditions | mass density [kg/m3]
298.15 K | 802.6
303.15 K | 798.5
308.15 K | 798.5
313.15 K | 789.6
318.15 K | 784.9

CCCCO + CC(N)CN
x1 = 1
Conditions | mass density [kg/m3]
298.15 K | 805.9
313.15 K | 794.5
318.15 K | 790.6

CC(N)CN (centres undefined) + CC(C)CO
mass density [kg/m3]
Conditions | 298.15 K | 303.15 K | 308.15 K | 313.15 K | 318.15 K
x2 = 0 | – | 853.6 | – | 844.5 | 839.7
x2 = 0.05 | 855.8 | 851.6 | 847.2 | 842.4 | 838.1
x2 = 0.1 | 853.9 | 849.4 | 845 | 840.5 | 836.2
x2 = 0.15 | 851.8 | 847.4 | – | 838.6 | 834.3
x2 = 0.2 | – | 845.2 | 840.7 | 836.3 | 831.9
x2 = 0.25 | 847.5 | 843.2 | 838.6 | 834.3 | 830
x2 = 0.3 | – | 841.3 | 836.8 | 832.6 | –
x2 = 0.35 | – | 839.5 | 834.8 | 830.5 | 826.2
x2 = 0.4 | 841.3 | 837.1 | 832.6 | 828.3 | 824.1
x2 = 0.45 | 839.1 | 834.9 | 830.5 | 826.4 | 821.9
x2 = 0.5 | 836.7 | – | 828.2 | 824 | –
x2 = 0.55 | 834.2 | – | 825.5 | 821.3 | 817.1
x2 = 0.6 | 831.6 | 827.5 | 822.9 | 818.8 | 814.4
x2 = 0.65 | 828.8 | – | 820.2 | 816 | 811.9
x2 = 0.7 | 825.6 | 821.4 | – | 812.9 | 808.7
x2 = 0.75 | 822 | 817.9 | 813.6 | 809.6 | 805.4
x2 = 0.8 | 817.9 | 813.8 | 809.6 | 805.6 | 801.5
x2 = 0.85 | – | 809.7 | 805.4 | 801.4 | 797.7
x2 = 0.9 | 808.8 | 805 | 800.6 | 796.6 | 792.7
x2 = 0.95 | 803.4 | 799.8 | – | 791.5 | 787.7

CC(C)CO + CC(N)CN
x1 = 1
Conditions | mass density [kg/m3]
303.15 K | 794.2
308.15 K | 790.5
313.15 K | 786.3
318.15 K | 782.2

CC(N)CN (centres undefined) + CCC(C)O
mass density [kg/m3]
Conditions | 298.15 K | 303.15 K | 308.15 K | 313.15 K | 318.15 K
x2 = 0 | 858.6 | 853.6 | 853.6 | 844.5 | 839.7
x2 = 0.05 | – | 852.2 | – | 842.4 | 837.4
x2 = 0.1 | – | 850 | 850 | 840.2 | 835.3
x2 = 0.15 | 852.4 | 848.4 | 848.4 | 838.1 | 833.1
x2 = 0.2 | 850.9 | – | 845.9 | 836.2 | 831.1
x2 = 0.25 | 847.8 | 843.2 | 843.2 | – | 829
x2 = 0.3 | 845.7 | 841 | – | 831.7 | 827
x2 = 0.35 | 843.6 | 838.9 | – | – | 824.5
x2 = 0.4 | 841.1 | 836.4 | 836.4 | 826.9 | 822.3
x2 = 0.45 | 838.9 | 834.3 | 834.3 | – | 820.1
x2 = 0.5 | 836.4 | 831.8 | 831.8 | 822.3 | 817.4
x2 = 0.55 | 833.6 | 829 | 829 | – | 815.1
x2 = 0.6 | 831.4 | 826.8 | 826.8 | 817.4 | 812.4
x2 = 0.65 | – | 823.6 | 823.6 | 814.4 | 809.7
x2 = 0.7 | 825.2 | – | 820.7 | 811.4 | 806.8
x2 = 0.75 | – | 818 | 818 | 808.6 | 803.7
x2 = 0.8 | 819.2 | 814.8 | 814.8 | – | –
x2 = 0.85 | 815.4 | 811 | 811 | 801.8 | 797.1
x2 = 0.9 | 811.9 | – | 807.2 | 798.1 | 793.3
x2 = 0.95 | 807.6 | 803.3 | – | 794.3 | –
